# PMC4336329 (PLoS ONE, 2015)
# Out of some 310,000 compounds screened, about 14,000 (4.5%) showed an effect of 50% or more. Effects have a minus sign here. The list shows a part of the results.
# Biological target: human ether-à-go-go-related gene (hERG) potassium channel (human, UniProt Q12809)
# Experiment: primary screen, population patch clamp on CHO cells stably expressing hERG
# 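Also: peak tail current of the secondary pulse compared with the same well before compound.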
# Chain of human ether-à-go-go-related gene (hERG) potassium channel (Q12809 whole entry, looked up): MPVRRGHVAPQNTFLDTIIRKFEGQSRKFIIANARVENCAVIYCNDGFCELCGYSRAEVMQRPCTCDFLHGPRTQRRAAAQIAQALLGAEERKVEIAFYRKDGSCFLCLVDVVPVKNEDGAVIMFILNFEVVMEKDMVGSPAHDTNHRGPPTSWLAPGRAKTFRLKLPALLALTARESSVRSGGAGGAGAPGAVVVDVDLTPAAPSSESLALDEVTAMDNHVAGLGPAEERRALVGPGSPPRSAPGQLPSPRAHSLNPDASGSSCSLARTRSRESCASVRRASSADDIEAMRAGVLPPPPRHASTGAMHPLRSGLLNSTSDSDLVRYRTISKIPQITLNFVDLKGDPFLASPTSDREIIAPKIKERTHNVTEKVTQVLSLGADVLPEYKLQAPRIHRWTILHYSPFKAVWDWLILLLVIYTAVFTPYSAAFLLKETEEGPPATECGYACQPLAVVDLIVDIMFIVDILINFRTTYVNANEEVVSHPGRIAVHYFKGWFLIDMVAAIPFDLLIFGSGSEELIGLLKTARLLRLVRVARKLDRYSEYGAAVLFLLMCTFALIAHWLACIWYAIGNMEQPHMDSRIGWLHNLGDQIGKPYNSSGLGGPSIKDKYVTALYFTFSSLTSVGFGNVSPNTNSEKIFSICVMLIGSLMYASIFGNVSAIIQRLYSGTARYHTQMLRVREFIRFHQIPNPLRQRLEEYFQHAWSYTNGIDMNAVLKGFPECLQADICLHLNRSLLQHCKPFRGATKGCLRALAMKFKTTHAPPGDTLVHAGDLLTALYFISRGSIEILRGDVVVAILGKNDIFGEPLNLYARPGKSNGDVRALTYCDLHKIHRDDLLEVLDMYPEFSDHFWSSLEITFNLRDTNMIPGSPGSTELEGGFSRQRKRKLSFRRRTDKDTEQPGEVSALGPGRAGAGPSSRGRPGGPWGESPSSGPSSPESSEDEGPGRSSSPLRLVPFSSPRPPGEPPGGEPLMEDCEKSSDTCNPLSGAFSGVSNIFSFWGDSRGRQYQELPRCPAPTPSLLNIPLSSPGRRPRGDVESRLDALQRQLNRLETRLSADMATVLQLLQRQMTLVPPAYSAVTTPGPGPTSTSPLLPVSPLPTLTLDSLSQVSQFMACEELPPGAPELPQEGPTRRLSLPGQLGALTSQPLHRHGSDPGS
row,SMILES,"hERG current change (%, negative = inhibition) at 10uM [%]"
1,Cc1cccc(NC(=O)/C=C/c2ccc(Cl)cc2)n1,4.16
2,COc1cc(C(=O)N2CCSCC2)ccc1OC1CCN(C(C)=O)CC1,17
3,COc1ccc(-n2cc(CN3CCC(OC)CC3)c(-c3cccc(F)c3)n2)cc1,-13.5
4,COc1nc(N)nc(NC(=O)c2cccs2)c1N=O,9.21
5,Cc1ccc(S(=O)(=O)N2[C@@H](c3ccccc3F)C(C(=O)O)=CC[C@H]2c2cccs2)cc1,26.6
6,CC(C)NC(=S)N=Nc1c(O)[nH]c2ccc([N+](=O)[O-])cc12,16.9
7,O=S(=O)(Nc1cccc2ncccc12)c1cccc(C(F)(F)F)c1,4.14
8,CCC(=O)NNc1cc(=O)c2c(=O)n(C)c(=O)n(C)c2[nH]1,-1.93
9,Cc1ccc(N2C(=O)N(c3ccc(C)cc3)C3CS(=O)(=O)CC32)cc1 (stereo not drawn),2.93
10,C#CCCc1ccccc1/C=[N+](/C)[O-],18.9
11,CCN1CCCC1CN(Cc1cc2cc(OC)ccc2[nH]c1=O)C(=O)NCc1ccccc1 (stereo not drawn),-46.4
12,CC(=O)c1cc(C#N)c(SCc2ccc([N+](=O)[O-])cc2)nc1C,17.7
13,CC(=O)Nc1ccc2nc(NC(=O)c3ccc([N+](=O)[O-])s3)sc2c1,8.75
14,Nc1nonc1-n1nnc(C(=O)N/N=C/c2ccccc2Cl)c1-c1ccc2c(c1)OCO2,5.9
15,CC1(C)CC2CC(C)(CN2C(=O)c2cccs2)C1 (stereo not drawn),1.71
16,Cc1cc(C)c(S(=O)(=O)N2CCN(C(=O)CCOc3ccccc3C)CC2)c(C)c1,-10.7
17,CSc1nc2ccc(NC(=O)NC(=O)c3c(F)cccc3F)cc2s1,6.29
18,COC(=O)C1=C(C)N(c2ccc(OC)c(OC)c2)C(=O)/C1=C\c1ccco1,-1.01
19,COc1cccc(NC(=S)N(Cc2ccc(Cl)cc2)Cc2ccc(C(=O)O)cc2)c1,25.6
20,CCCNC(=O)Cn1c(=O)oc2cc(S(=O)(=O)N3CCCC3)ccc21,11.9
21,Cc1ccccc1CS(=O)(=O)Cc1ccc(C(=O)NC2CCCC2)o1,-3.51
22,O=C(/C=C/c1ccco1)N1CCN(c2ncccn2)CC1,-12.6
23,O=S(=O)(NCC1CCN(Cc2ccccc2)CC1)c1ccccc1C(F)(F)F,-37.3

row,SMILES,"hERG current change (%, negative = inhibition) at 10uM [%]"
1,CCCN1CCC(=O)N([C@H](CSc2ccc(OC)cc2)c2ccccc2)CC1,-76.5
2,CCOc1ccc(C(=O)C[n+]2ccccc2C)cc1.[Cl-],-16.8
3,CC(=O)c1ccc(C(=O)N2CCc3c([nH]c4ccccc34)C2c2cccc(C)n2)s1 (stereo not drawn),-14.9
4,Cn1c(CCNC(=O)c2cccs2)nnc1SCC(=O)Nc1nc(-c2ccccc2)cs1,-7.06
5,NS(=O)(=O)c1ccc(CCNC(=O)CCCCCn2c(=S)[nH]c3ccc(Br)cc3c2=O)cc1,9.32
6,CCCCOc1ccc(OCCSc2nc3ccccc3n2CC(=O)O)cc1,13.2
7,Cc1cc(C)c(C#N)c(SCc2cn3c(C)cccc3n2)n1,-3.15
8,COCCSc1nc2c(c(=O)[nH]c(=O)n2C)n1Cc1cccc(C)c1,-45.6
9,CC(C)(C)NC(=O)c1cc(-c2ccc3c(c2)OCO3)nc2ccccc12,-4.72
10,CCCNS(=O)(=O)c1ccc(NC(=O)c2cccnc2)cc1,-4.88
11,COc1ccc(C(=O)N/N=C/c2ccc3cccc(OCc4ccccc4)c3n2)cc1,14.3
12,Cc1occc1-c1nnc(SCC(=O)N(C)C)o1,-0.525
13,O=C(NNC(=O)C1CCN(Cc2ccccc2)CC1)c1cccs1,10.8
14,Cc1ccc(SCC(=O)Nc2ccc(N3CCOCC3)cc2)cc1,14
15,CCOC(=O)C1=C(C)NC(SCC(=O)O)=NC1c1ccccc1 (stereo not drawn),5.32
16,O=C(NCC1CCCO1)C1CC(=O)N(c2ccccc2)C1 (stereo not drawn),-9.86
17,COc1ccccc1CNS(=O)(=O)c1ccc(NC(C)=O)cc1,-2.78
18,Cc1ccc(OCc2ccc(C(=O)Nc3nccs3)o2)cc1C,1.4
19,Cc1cccc(N(CC(=O)NCc2ccco2)C(=O)CCC(=O)Nc2nccs2)c1C,13.1
20,O=C(c1cccs1)N1CCCC(N2CCN(c3cccc(C(F)(F)F)c3)CC2)C1 (stereo not drawn),-68.4
21,O=C(NNC(=S)Nc1ccccc1Cl)c1ccncc1,9.23
22,O=C(c1cc2nc(-c3ccc(F)cc3)cc(C(F)(F)F)n2n1)N1CCOCC1,8.35
23,CCOc1ccc(NC(=S)NC(=O)/C=C/c2ccc(Br)cc2)c([N+](=O)[O-])c1,10.7

row,SMILES,"hERG current change (%, negative = inhibition) at 10uM [%]"
1,CCCCNC(=O)c1ccc(NC(=O)C2CCCO2)cc1 (stereo not drawn),4.17
2,CC(NC(=O)COC(=O)c1cc(Cl)nc(Cl)c1)c1ccccc1 (stereo not drawn),0.266
3,COc1ccc(Cl)cc1NC(=O)NCC1CCN(Cc2cc(C)ccc2C)CC1,-67.7
4,COc1ccc2[nH]c(-c3ccccc3)cc2c1,17.4
5,CCN1C(=O)C(C(=O)NC(C)c2ccccc2)C2CC1(C)Oc1ccccc12 (stereo not drawn),-13.5
6,COc1ccccc1N1CCN(C(=O)c2cccc(Oc3ccccc3)c2)CC1.Cl,-17.9
7,COc1ccc(C(CNC(=O)COc2cccc(C)c2)N2CCCC2)cc1 (stereo not drawn),-16.2
8,Cc1ccc(-c2csc3nc(-c4ccncc4)[nH]c(=O)c23)cc1,-7.25
9,Cc1ccc(NC(=O)NC2CC(=O)N(c3ccc4c(c3)OCCO4)C2)cc1C (stereo not drawn),4.96
10,Cc1ccc(NC(=S)NC2CCN(Cc3ccccc3)CC2)cc1,-46
11,CCOC(=O)C1=C2c3cc(OC)c(OC)cc3CC(C)(C)N2C(=O)C1=O,2.44
12,COc1ccc(N(C(=O)c2csnn2)C(C(=O)NC2CCCC2)c2cccs2)cc1 (stereo not drawn),-17.7
13,O=c1[nH][nH]c(C(F)(F)F)c1C=NCc1ccc(Cl)cc1,-1.88
14,CN1CCN(C(=O)/C(=C/c2ccc(N(C)C)cc2)NC(=O)c2ccccc2)CC1,-17.5
15,O=C1CCCN1CC(=O)N1CCCC(Nc2cccc(F)c2)C1 (stereo not drawn),1.96
16,Cc1cc(N2CCN(c3ccccn3)CC2)n2cc(-c3ccccc3)nc2n1,-72.3
17,Brc1ccc2nc(N3CCCC3)sc2c1,13
18,OCCC1CN(Cc2nc3ccc(F)cc3[nH]2)CCN1C1CCCC1 (stereo not drawn),-15.9
19,c1ccc(OCCCc2nc(-c3ccccn3)no2)cc1,-0.0161
20,Cc1cccnc1NC(=O)CSc1nnc(COc2ccc(C(C)C)cc2)n1C,4.48
21,CC(C)(C)c1ccc(C(=O)Nc2ccccc2NC(=O)c2ccco2)cc1,0.205
22,COCCNCCOc1ccc(C(C)(C)c2ccccc2)cc1.O=C(O)C(=O)O,-39.1
23,O=C(NC1CCCN(Cc2ccc(Cl)cc2)C1)c1c(F)cccc1F (stereo not drawn),-15.7

row,SMILES,"hERG current change (%, negative = inhibition) at 10uM [%]"
1,Cc1cccc(N2CCc3c2nc2ccc(Br)cc2c3N)c1.Cl,6.56
2,Cc1ccc(-c2csc(=S)[nH]2)cc1,19.1
3,CCOC(=O)c1sc2nc(CSc3ccccc3)[nH]c(=O)c2c1C,3.8
4,CC1CCCN(C(=S)NCCc2ccccc2)C1 (stereo not drawn),2.96
5,CN(CCOc1ccccc1)C(=O)C1CCN(C(=O)c2ccc(F)cc2)CC1,-19.9
6,O=C(c1cc(Cl)nc2ccccc12)N1CCCCC1,1.32
7,O=Cc1c(SCCO)nc2ccccn2c1=O,-8.54
8,COC(=O)NC1(C(F)(F)F)C(=O)NC(C)=C1C(=O)OC (stereo not drawn),11.2
9,COc1ccc(NC(C)=O)c2nc(C)c(C)nc12,-0.82
10,Nc1nc(CN2CCN(c3ccccn3)CC2)nc(Nc2ccc(F)cc2)n1,-67.4
11,COc1ccc(NC(=O)C2CCCN2C(=O)NCc2ccccc2)cc1OC (stereo not drawn),13.6
12,COc1ccc(OCC(=O)N2CCN(C(=O)c3ccccc3)CC2)cc1,-12.6
13,Cc1cc(OCC(O)CN2CCN(CCO)CC2)ccc1C(C)C.Cl (stereo not drawn),-3.17
14,O=C(CSc1nc2c(c(=O)n1-c1ccc(Cl)cc1)SCC2)NCC1CCCO1 (stereo not drawn),-34.5
15,CCc1ccc(C2=NNC(=Nc3cccc(S(=O)(=O)N(C)C)c3)SC2)cc1,-2.59
16,COc1ccc(CCNS(=O)(=O)c2cccc3cccnc23)cc1OC,-2.62
17,N#Cc1cnn2c(-c3cccc([N+](=O)[O-])c3)ccnc12,-52.7
18,Cc1cc(NC(=O)c2ccc3c(c2)C(=O)N(CCC(C)C)C3=O)no1,0.732
19,COc1ccccc1-c1cc(C(F)(F)F)nc(NCc2cccs2)n1,-11.3
20,CN(Cc1cccc(Cl)c1)C(=O)C1CSC2(C)CCC(=O)N12 (stereo not drawn),-5.77
21,CCOc1ccc(CCNC(=O)c2cc(C)nc3ccccc23)cc1OCC,-12.6
